# From the supplement of paper PMC11417369
# ± gives the standard deviation of the averaged measurements. This is one part of the list.
# Tested on: PfAP2-LT AP2 domain (GST-tagged)
# Assay: gcPBM binding intensity (ln(normalized median fluorescence intensity)); higher = stronger DNA binding
# How it was run: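 Alexa488 anti-GST antibody, scanned at 488 nm, detected GST-tagged P. falciparum DNA-binding domains that had been expressed in E. coli and incubated for 1 h on an Agilent 4 × 180k array. The array carried primer-extended double-stranded 36-bp intergenic genomic probes and negative controls. Binding intensity is the highest Masliner-normalised natural-log median intensity across replicate spots of either orientation of each probe.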
row,Sequence,gcPBM binding intensity (ln)
1,TTTCTCTTATTCCAATCTATAATAAGTATCAATATT [CACACA_negctrl_site179],8.57 ± 0.51
2,ACCATTTGTAGGTAAACACACATTATTCTTAATATC [CACACA_site5453],8.87 ± 0.42
3,ATATATTCATTTTTATGTACGTAAATTGTAAATTGG [XGTACX_site8242],8.77 ± 0.34
4,TGCATTATTTTATGAAGTACATATGAACAAAAAATT [XGTACX_site2185],8.65 ± 0.36
5,AAAATAATAATAAAAAGTACATGTGTATATAATAAA [XGTACX_site754],9.02 ± 0.37
6,TATGTTTTTCGGTATGCATGCATATGCTTAATAATA [TGCATGCA_site184],8.9 ± 0.33
7,AATATTAAACAAATGAAAAAAAAATATATATTATAT [CACACA_negctrl_site742],8.54 ± 0.4
8,AATATATATATGATTATATATATATATATATATATA [GTGCAC_negctrl_site290],9.21 ± 0.13
9,AAAATAACACAAATGGGTACATATTATATTAAATAA [XGTACX_site7027],8.85 ± 0.45
10,TTTAATTAAAATATATGTACATATATATATATATAT [XGTACX_site4517],9.48 ± 0.028
11,TAATATTTTATTTTTGTTGTGGATCCAAAAAAAAAA [CACACA_negctrl_site846],8.21 ± 0.43
12,CTATATATTTAAAAAAGTACAAATATAAAAATATAT [XGTACX_site676],8.54 ± 0.39
13,AAAAAAAAAAAAAACACACACATATAACATATTTAA [CACACA_site6745],9.3 ± 0.48
14,TGTTTACACTTTTTTTGTACACATAATTTTATTTGA [XGTACX_site3760],8.78 ± 0.45
15,TATTCTAGTCTGCTTACACACATATTTATATTTATA [CACACA_site7432],9.15 ± 0.38
16,ATTTTTTTTTTTTTTTTTTTTTTTTTTTTTTTATGC [CACACA_negctrl_site1018],8.51 ± 0.51
17,TTTTTTTTTTTTGTAGTGCAAATTAAAAATATATGT,8.35 ± 0.4
18,ATTTTTTTTAAACGAAGTACAATTTGTGCATTGGAA [XGTACX_site8109],8.45 ± 0.39
19,TATATATATATATATGTATGCATGTCCTTTTTTATT [TGCATGCA_site344],9.88 ± 0.085

row,Sequence,gcPBM binding intensity (ln)
1,AATATATGGTTTCATGATATAAAATTCAATTTAATG [GTGCAC_negctrl_site610],8.41 ± 0.42
2,TGTTTATCATATTTGTGTCCTCATTTTTTAGTATCA [XGTACX_site947],8.9 ± 0.47
3,ACAAAAAAAAAGGAAACACACAAAAAAAAAAAATAA [CACACA_site3523],8.89 ± 0.6
4,ACTATATTTCTATAATGTACAAAAATAAATCATATG [XGTACX_site3337],8.64 ± 0.39
5,ACCTATAAAAAATAATGTACAGGAAGAAATATAAGG [XGTACX_site5822],8.95 ± 0.46
6,TAATTTACACCTACGTGTACACACAAAAATATGTTT [XGTACX_site1868],9.1 ± 0.38
7,TTTATTATCAAGATTGCACACCCTTATGAACTTTTT [CACACA_site3166],9.02 ± 0.5
8,AAAAAAAAAAAAAATACACACAAACACAAATTAAAT [CACACA_site5982],9.32 ± 0.49
9,GTAATATTATAATATACACACATAGAATATATATAT [CACACA_site413],9.06 ± 0.39
10,AAGATCATATATTCGTGGGTATAAAAAGTTATAATA [TGCATGCA_negctrl_site439],8.54 ± 0.48
11,AGAAATATGTTGAAGCATTTATAATGTAGATATAAG [GTGCAC_negctrl_site640],8.71 ± 0.53
12,TATCATTTTGAAGTATGTACTTATTTTATTAAAATA [XGTACX_site7784],8.46 ± 0.4
13,ATTATATTAAAATATTCACACACTAACGTAAATCAT [CACACA_site8887],8.9 ± 0.39
14,TAAATACATAAATACACACACATATATATATATATA [CACACA_site5549],10.1 ± 0.43
15,TGTATAAGGTTTTTACGTTTTGAAGGATGTATTGTT [CACACA_negctrl_site1245],8.82 ± 0.41
16,TAGGTCATATTTTTTGCACACAAAAAAAAATATAAA [CACACA_site3380],8.85 ± 0.42
17,TTTTTCCAATCAGATGCATGTTACTATATTTGGTTC [TGCATGCA_site52],8.89 ± 0.39
18,CACCTCAATATTCACATACACACAATATCATCGAAG [CACACA_site1675],9.14 ± 0.34
19,AAGGAAAAAACAAATACACACAAAAACGCATTATAA [CACACA_site3466],9.24 ± 0.4

row,Sequence,gcPBM binding intensity (ln)
1,ATGAACTTATTTTAGTGTACTAAAAAATATGACTTC [XGTACX_site470],8.5 ± 0.55
2,TTTTTTTTTTTTGTAACATGCAAACAACAATATGGG [TGCATGCA_site695],8.65 ± 0.42
3,GGGAGGATATTACACAGTACCCAGGAAATCTACGGA [XGTACX_site4874],8.81 ± 0.5
4,TATGTTCCGAAGGTTGTACACACATAGAAATATACA [CACACA_site9285],8.98 ± 0.42
5,ATGTAATTGTATACATGTACGCAAACACAAAAGCAT [XGTACX_site6771],9.3 ± 0.47
6,TTTTGTTCATACAAATTGGAACAAGACAAAAATATA [XGTACX_negctrl_site327],8.41 ± 0.34
7,GTAAGTATATATAATAGTACATATATATTAATATAT [XGTACX_site4314],8.91 ± 0.41
8,TACATAATTTTAATCACACACAAACAAACACATACA [CACACA_site194],9.42 ± 0.2
9,CATATTAATACAGAATGTACGGATAACAAACTGTTT [XGTACX_site7935],8.86 ± 0.36
10,TTTTTTTTTTTGGTTACACACATTTGTATATTCTCA [CACACA_site134],9.11 ± 0.4
11,GGTCATCATCGGTATTGTACAAAAATGTGAAAATTA [XGTACX_site639],8.73 ± 0.48
12,ATAATTATATGATGAGTGCACAATAAAAATATCGTT [GTGCAC_site9920],9.04 ± 0.41
13,TTTTATTTAGGAGGTGCATGTAATACGGAACATAAT [TGCATGCA_site827],8.73 ± 0.3
14,CCATAACTCCTATGCACACATAAATATTACAGAGAT [CACACA_site5984],9.09 ± 0.42
15,TTTGATTTTAATGTGTGTACACATTTATTTATATAA [XGTACX_site4806],9.13 ± 0.51
16,GATTTATATTTTAAAAGTACAAGTTAAAATAAAAGT [XGTACX_site7059],8.61 ± 0.5
17,ATATAAGTATAATTATGTACTTATACTTATATAAAT [XGTACX_site5585],8.62 ± 0.41
18,AATATAAGATTATTATGTACATAATAAATATGTATT [XGTACX_site4773],8.79 ± 0.4
